# Some of the results follow.
# T1: UNK ZnF1-6 (called full-length) (human, UniProt Q9C0B0 30-357)
# T1 sequence: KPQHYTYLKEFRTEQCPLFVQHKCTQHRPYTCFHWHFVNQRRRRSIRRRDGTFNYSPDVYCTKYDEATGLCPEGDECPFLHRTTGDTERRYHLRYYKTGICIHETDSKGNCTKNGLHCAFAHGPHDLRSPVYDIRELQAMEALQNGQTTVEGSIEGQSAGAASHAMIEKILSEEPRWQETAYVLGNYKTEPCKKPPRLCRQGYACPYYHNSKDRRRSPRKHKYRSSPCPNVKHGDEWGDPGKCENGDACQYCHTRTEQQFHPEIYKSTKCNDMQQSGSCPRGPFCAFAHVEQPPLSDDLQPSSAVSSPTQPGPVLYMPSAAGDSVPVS
# B1: chr4:56461171:56461272:+|3pUTR|ENSG00000128050|msi1|total|mutant (ssRNA)
# RNA: GGGAGUUCUACAGUCCGACGAUCCUUCUGUAACCACAGUGACUACAAGCCGUUCUUUCUCUAUUGAAUUAUCCGGUCCAGAACCGAAGAUGUCAUUGUACACUUUAUUUCCCUCACACUGUGUUAUGCUCUGAUGUGCUAUGCCAACAGAGGAUUGAGCAUCA
# B2: ENSG00000122863:stop:overlap|stop_codon|ENSG00000122863|stop_codon|NA|stop_codon (ssRNA)
# RNA: GGGAGUUCUACAGUCCGACGAUCCCGCCCUCACCAACCGCUCAGUCAGCCUGCUGGAGGAGAGGGGCACCUUCUGGGUCACGUAGGGGGGCCGGGGCCCCGUAUGCCCCUCCUCGUGAAAGGCCUGCCCCGUCUUUCUGCCGCCAACAGAGGAUUGAGCAUCA
# B3: chr15:77046177:77046188:-|3pUTR|ENSG00000140391|msi1_unk|total|mutant (ssRNA)
# RNA: GGGAGUUCUACAGUCCGACGAUCUUAAUCAAAGUUGGCUUUACCGGAGGAGUAUAAUGUAUGCACUACUGUUUUAAAAGAAUCCGUGUGAGUGUGUUUUUGUAUGAAUGAGCCCAUUCAUGGUAAGUCUUAAGCUUGUUGGAACAACAGAGGAUUGAGCAUCA
# B4: chr2:37256661:37256929:-|CDS|ENSG00000115825|control|control|control (ssRNA)
# RNA: GGGAGUUCUACAGUCCGACGAUCAGGAACUCCAGCAUACUUAGCCCCUGAAGUUCUCCGGAGCAAAGGUUACAACCGUUCCCUAGAUAUGUGGUCAGUGGGAGUUAUCAUCUAUGUGAGCCUCAGUGGCACAUUUCCUUUUAACAACAGAGGAUUGAGCAUCA
# B5: ENSG00000078043:stop:overlap|stop_codon|ENSG00000078043|stop_codon|NA|stop_codon (ssRNA)
# RNA: GGGAGUUCUACAGUCCGACGAUCGGAAAUGCAUCUUUAUGUCAGAAACACAAAGCAGCCCAACCAAAGGGUUUGUUAAUUUAUAGUUCACUAUUGUUCAUUACCCUUGCAACUAAUUGCUCUUGGAUAGAUUUAUAAAUGUCUCAACAGAGGAUUGAGCAUCA
# B6: chr7:139045324:139045425:-|3pUTR|ENSG00000105939|msi1|FALSE|bound_elsewhere (ssRNA)
# RNA: GGGAGUUCUACAGUCCGACGAUCAGUUCAAAACCGCUGUCAUGGCCCCAUGUGAUCUCUCCCUCCCCUACCCCUCUAUCAUUUAGUUUCUUCUGCGCAAGCCACUCUGGCUUCCUUUCAGUUUUGUGGUUCCCAUUUUUAGCUCAACAGAGGAUUGAGCAUCA
# B7: ENSG00000198589:be:win_9301|3pUTR|ENSG00000198589|bound_else_gene|NA|bound_elsewhere_windowed (ssRNA)
# RNA: GGGAGUUCUACAGUCCGACGAUCAGUACCAAAGCUCACUACUGCGGUUUGCCUGUGCCUGGACAAUGAGGCGGAGCCACUGUUGUUUUGUUGGGGCACCCCCUUCCCUCCCCGGGUUUGCAAAUAGAGGCUACCGGGUGCUGUCAACAGAGGAUUGAGCAUCA
# B8: ENSG00000107863:be:win_5851|CDS_3pUTR|ENSG00000107863|bound_else_gene|NA|bound_elsewhere_windowed (ssRNA)
# RNA: GGGAGUUCUACAGUCCGACGAUCAAAGCAGAGUUUCAUCCCUGUCUUUAAACUGGGGGUAUGUCCACUCUAGCAAGUAAAAAAACUACUGUUACACGUUCCAGUAACUCUGUCAAUAUUUUCUUGUAUCAGAAUUGUUAUUAUCAACAGAGGAUUGAGCAUCA
# B9: chr5:133074000:133074114:+|CDS|ENSG00000170606|unk|FALSE|unique (ssRNA)
# RNA: GGGAGUUCUACAGUCCGACGAUCUCUUGCAUAUGGAAUCUAUAAGCAGGAUCUUCCUGCCUUAGAAGAGAAACCAAGAAAUGUAGUUUUUGUAGACAUGGGCCACUCUGCUUAUCAAGUUUCUGUAUGUGCAUUUAAUAGAGGCAACAGAGGAUUGAGCAUCA
# B10: chr19:57593639:57593745:+|3pUTR|ENSG00000171649|unk|total|mutant (ssRNA)
# RNA: GGGAGUUCUACAGUCCGACGAUCUGAACCUUCUUAUUUCUCUACAUUCUUGCCAUACUUGGUAUGGUCCGUCUUUUUAAUUUCCGUUGUUUUAACCGCUGUAUAACCGCAUCUGUCUGUGAUUUUAUUGCAUUUUUCUGGUAUCAACAGAGGAUUGAGCAUCA
# B11: chrX:119243754:119243940:+|3pUTR|ENSG00000101856|msi1|FALSE|unique (ssRNA)
# RNA: GGGAGUUCUACAGUCCGACGAUCAGCUGCAAAAAAGCAUAUUUUCUGUGUUUCUGGACUGCACUGUUGUCCUUGCCCUCACAUAGACACUCAGACACCCUCACAAACACAGUAGUCUAUAGUUAGGAUUAAAAUAGGAUCUGACAACAGAGGAUUGAGCAUCA
# B12: chr2:205796522:205796663:+|3pUTR|ENSG00000118257|msi1|FALSE|unique (ssRNA)
# RNA: GGGAGUUCUACAGUCCGACGAUCGUUUUUAUUAAGUGCCUUGAAAAAAUGAAGAAAAAUGUAUUUUCCCUUUAUGUAAAAAUUAGUGAAUAUCUUAUGAAUUAAGGCAUUCCUCUUUCCCUAACCCCGAUGGCUCCAUUCCCACAACAGAGGAUUGAGCAUCA
# B13: chr20:3933335:3933436:-|3pUTR|ENSG00000101236|msi1|total|mutant (ssRNA)
# RNA: GGGAGUUCUACAGUCCGACGAUCUUACAACACCUGCUAUCAAAUCAUCUAAGCUGAAAACAUGAGAUGCGCUUGGAAAGGCCCCGUCAGAAGCCAUUUCCUCUUAUCAUUUCCCUCUCCUAUGCACCAGUAAGGCCCGUCCAGCAACAGAGGAUUGAGCAUCA
# B14: ENSG00000198589:be:win_7001|CDS|ENSG00000198589|bound_else_gene|NA|bound_elsewhere_windowed (ssRNA)
# RNA: GGGAGUUCUACAGUCCGACGAUCGAGCUUGGCGAAACAGUCAGCGUGAUACCUCUGAUAUUAAGGAGUUGAUCCCUGAAUUUUAUUAUCUCCCUGAGAUGUUUGUCAACUUCAAUAAUUAUAAUCUUGGAGUGAUGGAUGAUGCAACAGAGGAUUGAGCAUCA
# B15: chr4:4235611:4235720:-|3pUTR|ENSG00000132406|unk|FALSE|unique (ssRNA)
# RNA: GGGAGUUCUACAGUCCGACGAUCAUGAUAGUUUUGUUAGGUGACAGGACCAAAUGAAAAUAUUUUAUGUUUUCUCAUCACUUUAGAUUUUAUCAUUAUGUACAUUACUGGGUUUUUAGCAUUUCCUAAUGUGAAGUUUUAAUCCAACAGAGGAUUGAGCAUCA
# B16: chr6:30110447:30110678:-|CDS|ENSG00000204616|control|control|control (ssRNA)
# RNA: GGGAGUUCUACAGUCCGACGAUCCCAGGUAGAACAUGAGAAGCAAAGGAUCCUCACAGAAUUUGAACUCCUGCAUCAAGUCCUAGAGGAGGAGAAGAAUUUCCUGCUAUCACGGAUUUACUGGCUGGGUCAUGAGGGAACGGACAACAGAGGAUUGAGCAUCA
# B17: chr1:229632307:229632408:+|CDS|ENSG00000135763|unk|FALSE|bound_elsewhere (ssRNA)
# RNA: GGGAGUUCUACAGUCCGACGAUCAUUUUAUAAGAAAAAGCUUGAACUGAAGGAAGAUAUUGUUGAAAGGCUUUGGAUCUAUAUAGAUAACAUUUUACAUAGCAGAAAAUUGCAGAAUCUCCUCAAGAAUGGAAAGACCAUUAACAACAGAGGAUUGAGCAUCA
# B18: chr19:35513049:35513475:-|CDS|ENSG00000161249|control|control|control (ssRNA)
# RNA: GGGAGUUCUACAGUCCGACGAUCUGGCCAAGGGACCAGAGAAGCAGUUGGCACUGGAGUCAGGCAGGUUCCAGGCUUUGGCGUAGCAGAUGCUUUGGGCAACAGGGUCGGGGAAGCAGCCCAUGCUCUGGGAAACACUGGGCACAACAGAGGAUUGAGCAUCA
# B19: chr3:120327094:120327202:-|3pUTR|ENSG00000163428|unk|FALSE|unique (ssRNA)
# RNA: GGGAGUUCUACAGUCCGACGAUCGAAGAGAAGUCACCAAACACCUAGGGACAGUCCUAGGCCUAGAAAGCCCUUUAAAGUAAUAGUGAAUUGUUUUAAAAUUAAGUUAUUGAGUGGCCUACUGACUACCAUCCAAAAACCUUUCAACAGAGGAUUGAGCAUCA
# B20: chr8:37846853:37847175:-|CDS|ENSG00000104221|control|control|control (ssRNA)
# RNA: GGGAGUUCUACAGUCCGACGAUCGGCCAUCUGCACGCUGUUGUAUGCAGAUUUGGAUGUGUUUUCUAGCACUUACAUGCAGAUAGUGAAGCUCCUGGGACUGGAUGUGCCAUCUCUGUGCUUGGCAGAACUGGUGAAGACCUACAACAGAGGAUUGAGCAUCA
# Biological target: T1, UNK ZnF1-6 (called full-length)
# Assay: nsRBNS (natural sequence RNA bind-n-seq); RBNS binding buffer (assumed for nsRBNS): 25 mM Tris pH 7.5, 150 mM KCl, 3 mM MgCl2, 0.01% Triton X-100, 500 ug/ml BSA, 20 U/ml SUPERase-In, 4 C; UNK is unkempt and MSI1 is Musashi-1; names of the RNAs are library labels; protein concentration not given here; high values mean tight binding
row,Binder,binding signal
1,B1,0.296 enrichment R
2,B2,0.708 enrichment R
3,B3,0.359 enrichment R
4,B4,0.849 enrichment R
5,B5,1.63 enrichment R
6,B6,6.61 enrichment R
7,B7,1.64 enrichment R
8,B8,0.426 enrichment R
9,B9,0.465 enrichment R
10,B10,1.21 enrichment R
11,B11,2.76 enrichment R
12,B12,1.12 enrichment R
13,B13,0.525 enrichment R
14,B14,0.435 enrichment R
15,B15,2.36 enrichment R
16,B16,1.06 enrichment R
17,B17,2.37 enrichment R
18,B18,1.16 enrichment R
19,B19,3.46 enrichment R
20,B20,0.513 enrichment R

# From publication PMC12136788
